Here are results for 13 compounds from publication PMC4896931, “The discovery of 2-substituted phenol quinazolines as potent RET kinase inhibitors with improved KDR selectivity” (European Journal of Medicinal Chemistry, 2016).

Structures are written as SMILES. Where only a bound is given, the exact number is not on record here.

One assay concerns the target BaF3 cells expressing KDR (Homo sapiens, UniProt P35968). Nature of the assay: BaF3 cellular assay, KDR-driven line (CellTiter-Glo viability). The format is cell-based. As to conditions: 48 h, geometric mean of at least four determinations, standard deviation in parentheses.
Take `COc1cc2ncnc(Nc3c(F)ccc(O)c3Cl)c2cc1OC` [Compound 40, 2-Chloro-3-((6,7-dimethoxyquinazolin-4-yl)amino)-4-fluorophenol]: the IC50 was determined as 5400 nM.
With `COc1cc2ncnc(Nc3ccc(Br)cc3F)c2cc1OC` [Compound 4], the IC50 amounted to 2900 nM.
With `COc1cc2ncnc(Nc3cc(O)c(F)cc3F)c2cc1OC` [Compound 28], the IC50 amounted to 66 nM.
`COc1cc2ncnc(Nc3cc(O)c(C)cc3F)c2cc1OC` [Compound 30]: the IC50 came out at 9.5 nM.
Regarding `COc1cc2ncnc(Nc3c(Cl)ccc(O)c3C)c2cc1OC` [Compound 37, 4-Chloro-3-((6,7-dimethoxyquinazolin-4-yl)amino)-2-methylphenol], the IC50 was over 10000 nM.
In the case of `COc1cc2ncnc(Oc3cccc(O)c3)c2cc1OC` [Compound 42, 3-((6,7-Dimethoxyquinazolin-4-yl)oxy)phenol], the half-maximal inhibitory concentration (IC50) was determined as 840 nM.
On the same count and under the same terms, the value for `COc1cc2ncnc(Nc3cccc(O)c3F)c2cc1OC` [Compound 14, 3-((6,7-Dimethoxyquinazolin-4-yl)amino)-2-fluorophenol] was 1300 nM; that for `COc1cc2ncnc(Nc3ccc(Cl)c(O)c3)c2cc1OC` [Compound 21] was 110 nM.
Consider `COc1cc2ncnc(Nc3cc(O)ccc3F)c2cc1OC` [Compound 25], for which the IC50 came to 98 nM.
On to `COc1cc2ncnc(Nc3c(Cl)ccc(O)c3Cl)c2cc1OC` [Compound 39, 2,4-Dichloro-3-((6,7-dimethoxyquinazolin-4-yl)amino)phenol], for which the IC50 was over 10000 nM.
`COc1cc2ncnc(Nc3ccc(C)c(O)c3)c2cc1OC` [Compound 20]: the IC50 was found to be 88 nM.
Turning to `COc1cc2ncnc(Nc3cc(O)ccc3Cl)c2cc1OC` [Compound 26, 4-Chloro-3-((6,7-dimethoxyquinazolin-4-yl)amino)phenol], the IC50 came to 240 nM.

A further assay deals with T1, RET (Homo sapiens, UniProt P07949).
T1 construct: purchased Carna Biosciences 08-159
Nature of the assay: RET biochemical assay (CisBio HTRF kinEASE). As to conditions: ATP at Km, geometric mean of four independent determinations, standard deviation in parentheses.
With `COc1cc2ncnc(Nc3cccc(O)c3C#N)c2cc1OC` [Compound 18, 2-((6,7-Dimethoxyquinazolin-4-yl)amino)-6-hydroxybenzonitrile], the half-inhibitory concentration (IC50) is over 10000 nM.
